The values that follow come from ChEMBL document CHEMBL4888484, “Replenishing the malaria drug discovery pipeline: Screening and hit evaluation of the MMV Hit Generation Library 1 (HGL1) against asexual blood stage Plasmodium falciparum ,using a nano luciferase reporter read-out” (2022).

Usually % Inhibition stands for the relative decrease from the control value, in per cent.

The structures appear in SMILES notation. In all, about 150,000 compounds went through this assay and about 540 (0.36%) showed an effect of 50% or more. The list shows a part of the results.

In the assay the test system is Plasmodium falciparum. Nature of the assay: Primary screen in NF54 nanoGlo assay, in single point, at 2uM, 72h; a lower Z score goes with more inhibition. Format: functional, Erythrocyte. The conditions noted are these: timepoint 72 hour.
Take `CCOc1nc(C)ccc1-c1nc(-c2ccc(Br)o2)no1`: the “% Inhibition” value is given as -9% and the Z score is reported as 1.19.

As for `COc1cccc2nc(C[C@H]3CN(C4CCC4)CC[C@H]3CC(=O)O)[nH]c12`, the “% Inhibition” value is reported as 12% and the Z score is given as -1.45.

For the compound `Cc1ccc(C(C)C)c(Oc2ccc(Cl)cc2NC(=O)c2cc(Cl)ccc2O)c1`, the “% Inhibition” value was found to be 16% and the Z score is reported as -1.95.

As for `CCN(C)c1ccccc1NC(=O)NC[C@H](C)CN1CCOCC1`, the “% Inhibition” value is -9% and the Z score amounted to 1.25.

Take `CC[C@H](C)N(CCNC(=O)Nc1cn(CC(C)C)c(=O)c2ccccc12)Cc1ccco1`: the “% Inhibition” value is on record as -9% and the Z score was determined as 1.48.

As for `CCN1C[C@@H](S(=O)(=O)NCC2(CC)CC2)CC1=O`, the “% Inhibition” value is listed as 15% and the Z score is -1.74.

Regarding `O=C(OCc1ccccc1)[C@@H]1CCCN1C(=O)c1ccccn1`, the “% Inhibition” value was 4% and the Z score is on record as -0.54.

`COc1ccc(CNC(=O)CC[C@H]2CCCN(C)C2)c(OC)c1`: the “% Inhibition” value is recorded as 7% and the Z score is -1.15.

As for `COCCn1cnnc1[C@H](C)NCc1ccc(OC)c(C)c1`, the “% Inhibition” value was -11% and the Z score is recorded as 2.32.

As to `COc1ccc(NC(=O)c2sc3nc(C)c(C(=O)Nc4ccc(C)cc4C)c(-c4ccccc4Cl)c3c2N)cc1`, the “% Inhibition” value is 38% and the Z score is listed as -3.76.

With `Cc1nccc(C(=O)OCc2c(C)nn(Cc3ccccc3)c2Cl)n1`, the “% Inhibition” value is -10% and the Z score came out at 1.03.

Regarding `Cc1cn2nnc(C(=O)N3CCC(C(=O)N[C@H]4CCc5ccccc54)CC3)c2c(=O)[nH]1`, the “% Inhibition” value is listed as -10% and the Z score is 1.18.

Take `CCC(=O)n1nc(NCc2cccc3ccccc23)nc1NCc1cccc2ccccc12`: the “% Inhibition” value is -13% and the Z score is recorded as 1.72.

Take `COc1cc(C(=O)N2CCC3(CCO3)CC2)ccc1Cl`: the “% Inhibition” value was -2% and the Z score was found to be 0.32.

Take `CCCc1cc(=O)n2nc(Cc3ccccc3)c(-c3ccccc3)c2[nH]1`: the “% Inhibition” value came to 29% and the Z score is on record as -3.27.

As for `CC(C)Oc1ccc([C@H](C(=O)O)N(C)CCC2CCOCC2)cc1`, the “% Inhibition” value is recorded as -3% and the Z score was 0.61.

Consider `COCC(NC(=O)C1CC2C=CC1C2)C1CCCO1` (centres undefined), for which the “% Inhibition” value came to 9% and the Z score is recorded as -1.61.

In the case of `CC(=O)NCc1csc([C@H]2CCCN(S(=O)(=O)Cc3cc(F)cc(F)c3)C2)n1`, the “% Inhibition” value is on record as -6% and the Z score came out at 0.71.

As to `C[C@H](NC(=O)c1cccnc1)C(C)(C)C`, the “% Inhibition” value is listed as -27% and the Z score is on record as 3.22.

In the case of `Cc1cc(C)c(C(=O)NC2CCN(C(=O)c3cc(F)cnc3O)CC2)o1`, the “% Inhibition” value is reported as -8% and the Z score was 0.98.

As for `CS(=O)(=O)N(Cc1cccs1)Cc1cccs1`, the “% Inhibition” value is -14% and the Z score is 1.94.

Turning to `COc1ccc2c(c1)CCCN(c1nc(C)nc3[nH]ccc13)C2`, the “% Inhibition” value is reported as -7% and the Z score turned out to be 1.24.

For the compound `CC(C)(C)c1cc(-c2ccc(C#N)cc2)nc(NC2CC2)n1`, the “% Inhibition” value is 3% and the Z score is reported as -0.48.

For the compound `N#Cc1ccc(S(=O)(=O)N2CCC[C@H](n3nnc4ccccc43)C2)cc1`, the “% Inhibition” value is -19% and the Z score is 1.7.

On to `Cc1ccsc1C(=O)Nc1ccnn1C1CCCC1`, for which the “% Inhibition” value is listed as -9% and the Z score is recorded as 1.67.

Take `COc1ccc2c(O)c(C(=O)NCCN(C)C)cnc2c1`: the “% Inhibition” value is on record as -7% and the Z score was 0.96.

For the compound `O=C(Cc1noc2ccccc12)N[C@H](c1cccs1)C1CCOCC1`, the “% Inhibition” value turned out to be 0% and the Z score is reported as -0.09.

Take `Cc1cc(=O)n(CCC2OCCO2)cc1Br`: the “% Inhibition” value is -1% and the Z score is given as 0.17.

In the case of `CCn1c(N2CCC[C@H](C(=O)NCc3cccc(Cl)c3)C2)cc(=O)n(C)c1=O`, the “% Inhibition” value is on record as -20% and the Z score is listed as 3.09.

In the case of `Cc1c(NC(=O)C2(c3cccs3)CCCCC2)nnn1C`, the “% Inhibition” value is listed as -2% and the Z score is on record as 0.31.

Consider `C[C@@H](Cn1cncn1)c1nc(C2(c3ccccc3)CC2)n[nH]1`, for which the “% Inhibition” value is recorded as 8% and the Z score is on record as -1.08.

Take `CC(=O)N1CCN(c2ccc(Nc3cc(C)nc4nc(-c5ccc(C)cc5)nn34)cc2Cl)CC1`: the “% Inhibition” value is on record as -4% and the Z score turned out to be 0.55.

In the case of `CC(C)c1n[nH]c2c1CN(C(=O)c1onc3c1CCCC3)CC2`, the “% Inhibition” value was -10% and the Z score turned out to be 1.55.

As to `N#Cc1cccc(COC2CCCCC2)c1`, the “% Inhibition” value was -6% and the Z score came out at 1.15.

As to `Fc1c(Cl)cccc1CNCc1ccc(C2OCCO2)cc1`, the “% Inhibition” value is recorded as -10% and the Z score amounted to 1.35.

With `Cc1ccc2c(c1)C(=O)N(C)[C@@H](c1cn3ccccc3n1)N2`, the “% Inhibition” value is listed as -19% and the Z score is 2.47.

Regarding `CCCC(=O)c1cn(CC(=O)N2CCC[C@H]2c2nc(C)n[nH]2)c2ccccc12`, the “% Inhibition” value was -10% and the Z score is listed as 1.25.

`O=C1CCC(C(=O)N2CCC(OCCCc3ccccc3)C2)N1` (centres undefined): the “% Inhibition” value is -7% and the Z score came out at 0.86.

With `COc1ccccc1C1=NS(=O)(=O)N(C)C(C(=O)N2CCN(c3ccc(F)cc3)CC2)=C1`, the “% Inhibition” value is recorded as -4% and the Z score worked out at 0.74.

In the case of `CC(C)N1C[C@@H](CNC(=O)c2cncnc2)CC1=O`, the “% Inhibition” value is given as -10% and the Z score is recorded as 1.38.

Take `Cc1csc(-c2nccn2CCc2nc(-c3cccnc3)n[nH]2)n1`: the “% Inhibition” value was 1% and the Z score is -0.11.

Turning to `COc1ccc(-c2nccn2CCc2ccccn2)c(OC)c1`, the “% Inhibition” value is 1% and the Z score is recorded as -0.25.
